Measurements as given in paper PMC9911399, “Two distinct binding modes provide the RNA-binding protein RbFox with extraordinary sequence specificity”.
Substitutions are numbered along the chain they refer to; changes in the protein carry UniProt numbers. The list shows a part of the results.

T1: RBFOX1 RRM RbFoxmut (Fox-RRM*) (Homo sapiens, UniProt Q9NWB1 109-208, R118D;E147R;N151S;E152T)
T1 sequence: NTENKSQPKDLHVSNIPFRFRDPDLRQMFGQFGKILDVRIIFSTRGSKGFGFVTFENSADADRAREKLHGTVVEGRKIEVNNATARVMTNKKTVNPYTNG

B1: UUAAUGU (DNA:RNA)
RNA: GGGAGACCGGAAUUCAGAUUGUCCUUAAUGUUUAAAUCCCGUCGUAGCCACCA
DNA 1: CAATCTGAATTCCGGTCTCCC
DNA 2: TGGTGGCTACGACGGGATT
B2: AAUGCGG (DNA:RNA)
RNA: B1 RNA with U25A, U26A, A27U, A28G, U29C, U31G
DNA 1: CAATCTGAATTCCGGTCTCCC
DNA 2: TGGTGGCTACGACGGGATT
B3: UUCGUUC (DNA:RNA)
RNA: B1 RNA with A27C, A28G, G30U, U31C
DNA 1: CAATCTGAATTCCGGTCTCCC
DNA 2: TGGTGGCTACGACGGGATT
B4: CAUUAAC (DNA:RNA)
RNA: GGGAGACCGGAAUUCAGAUUGUCCCAUUAACUUAAAUCCCGUCGUAGCCACCA
DNA 1: CAATCTGAATTCCGGTCTCCC
DNA 2: TGGTGGCTACGACGGGATT
B5: GGACUGA (DNA:RNA)
RNA: B1 RNA with U25G, U26G, A28C, U31A
DNA 1: CAATCTGAATTCCGGTCTCCC
DNA 2: TGGTGGCTACGACGGGATT
B6: GUUCCAA (DNA:RNA)
RNA: B4 RNA with C25G, A26U, U28C, A29C, C31A
DNA 1: CAATCTGAATTCCGGTCTCCC
DNA 2: TGGTGGCTACGACGGGATT
B7: CGCUGGA (DNA:RNA)
RNA: B4 RNA with A26G, U27C, A29G, A30G, C31A
DNA 1: CAATCTGAATTCCGGTCTCCC
DNA 2: TGGTGGCTACGACGGGATT
B8: CCACCGA (DNA:RNA)
RNA: B1 RNA with U25C, U26C, A28C, U29C, U31A
DNA 1: CAATCTGAATTCCGGTCTCCC
DNA 2: TGGTGGCTACGACGGGATT
B9: UGAGGAC (DNA:RNA)
RNA: B4 RNA with C25U, A26G, U27A, U28G, A29G
DNA 1: CAATCTGAATTCCGGTCTCCC
DNA 2: TGGTGGCTACGACGGGATT

The binders below were run against T1, RBFOX1 RRM RbFoxmut (Fox-RRM*) (assay: EMSA; HiTS-Eq, 1 nM pool, 10 min; buffer printed only for the single-RNA assays: 10 mM Tris pH 7.5, 150 mM NaCl, 3.4 mM EDTA, 0.001% NP-40, 30 C). Settings: tags: His6 N-terminal (pET28a); label: 5' 32P.
Method in brief: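 Purified RbFox RRM, wild type or mutant, was incubated for 10 min in 50 µL with 1 nM of a 5′-radiolabelled RNA pool carrying 7 randomized nucleotides, whose flanks were annealed to DNA oligonucleotides, over a series of increasing protein concentrations. Unbound RNA was resolved on 8% native PAGE, cut out, reverse-transcribed, barcoded by PCR and sequenced on an Illumina HiSeq 2500. Relative association constants were derived from changes in read counts for each RNA species versus the control reaction and normalised to the cognate motif.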
B1 was tested, and the binding signal was 0.139 KA relative to UGCAUGU. With B2 the binding signal was 0.0885 KA relative to UGCAUGU. In the case of B3, the binding signal is reported as 0.0829 KA relative to UGCAUGU. With B4 the binding signal was 0.113 KA relative to UGCAUGU. With B5 the binding signal was 0.258 KA relative to UGCAUGU. For B6, the binding signal was 0.0788 KA relative to UGCAUGU. With B7 the binding signal was 0.0839 KA relative to UGCAUGU. For B8, the binding signal was 0.078 KA relative to UGCAUGU. B9 was tested, and the binding signal was 0.0659 KA relative to UGCAUGU.
